Measured values reported in patent US20090325873A1, “HUMAN GLP-1 MIMETIBODIES, COMPOSITIONS, METHODS AND USES” (CENTOCOR, INC., priority 2006, published 2009).

Key:
GLP-1R = target: T1, GLP-1R (Homo sapiens, UniProt P43220); assay: FACS binding assay, HEK293 cells over-expressing the GLP-1R; details: 20 nM, 2 hours at 4° C., flow cytometry
T1 construct: expressed in transfected cells; host or cells: HEK293
Protocol: (§1) The activity of a GLP-1 mimetibody was tested in an in vitro FACS binding assay. To determine whether the GLP-1 MMB binds the GLP-1R, HEK293 cells (1×10^6 cells) over-expressing the GLP-1R were incubated with GLP-1 MMB of SEQ ID NO: 69 (20 nM) for 2 hours at 4° C. The cells were washed, and a fluorescently labeled secondary detection antibody (1 μg/mL goat anti-human IgG, Fc gamma specific) was added for 30 minutes at 4° C. The fluorescence intensity of the cells was monitored via flow cytometry.

control HEK293 cells = assay: FACS binding assay, control HEK293 cells; details: 20 nM, flow cytometry
Protocol: as §1

DPP-IV = target: T2, DPP-IV (Homo sapiens, UniProt P27487); assay: DPP-IV cleavage assay; assay type: in vitro ADME; details: 1.2 nM, DPP-IV 1 μg/mL, room temperature, 0-40 minutes, GLP-1 Active ELISA
T2 construct: purchased R&D Systems
Protocol: Since GLP-1 is rapidly inactivated by DPP-IV, an in vitro assay was established to quantitate intact (i.e. uncleaved) GLP-1 MMB of SEQ ID NO: 69. Briefly, GLP-1 MMB of SEQ ID NO: 69 or peptide (1.2 nM) was incubated at room temperature with DPP-IV (1 μg/mL, R&D Systems). After various times (0, 5, 10, 15, 20, 30, 40 minutes), a DPP-IV inhibitor (100 μM, Linco) was added to quench the reaction. The amount of intact GLP-1 MMB of SEQ ID NO: 69 or peptide was measured using the GLP-1 Active ELISA (Linco) and the GLP-1 MMB of SEQ ID NO: 69 or peptides for the respective standard curves.

T2 sequence (P27487 whole entry, species assumed): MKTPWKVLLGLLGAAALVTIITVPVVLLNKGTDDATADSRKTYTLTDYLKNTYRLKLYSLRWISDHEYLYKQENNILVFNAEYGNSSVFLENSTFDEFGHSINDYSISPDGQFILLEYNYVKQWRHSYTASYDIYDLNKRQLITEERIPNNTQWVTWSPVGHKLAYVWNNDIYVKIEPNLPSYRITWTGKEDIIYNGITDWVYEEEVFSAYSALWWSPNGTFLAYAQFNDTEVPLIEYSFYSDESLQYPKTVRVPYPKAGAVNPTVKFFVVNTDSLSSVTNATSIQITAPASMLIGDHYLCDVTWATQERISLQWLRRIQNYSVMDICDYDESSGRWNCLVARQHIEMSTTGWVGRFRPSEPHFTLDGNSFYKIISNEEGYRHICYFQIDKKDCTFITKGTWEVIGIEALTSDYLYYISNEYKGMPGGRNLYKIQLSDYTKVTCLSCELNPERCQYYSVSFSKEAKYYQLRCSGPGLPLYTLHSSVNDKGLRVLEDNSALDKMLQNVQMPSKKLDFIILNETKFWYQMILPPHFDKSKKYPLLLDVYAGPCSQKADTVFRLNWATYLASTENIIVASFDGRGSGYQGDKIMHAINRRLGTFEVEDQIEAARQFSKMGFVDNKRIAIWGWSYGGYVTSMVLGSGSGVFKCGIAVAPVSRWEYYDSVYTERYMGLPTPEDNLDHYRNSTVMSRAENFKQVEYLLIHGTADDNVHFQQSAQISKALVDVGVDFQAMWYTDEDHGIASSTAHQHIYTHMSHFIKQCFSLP
T1 sequence (P43220 24-463, species assumed): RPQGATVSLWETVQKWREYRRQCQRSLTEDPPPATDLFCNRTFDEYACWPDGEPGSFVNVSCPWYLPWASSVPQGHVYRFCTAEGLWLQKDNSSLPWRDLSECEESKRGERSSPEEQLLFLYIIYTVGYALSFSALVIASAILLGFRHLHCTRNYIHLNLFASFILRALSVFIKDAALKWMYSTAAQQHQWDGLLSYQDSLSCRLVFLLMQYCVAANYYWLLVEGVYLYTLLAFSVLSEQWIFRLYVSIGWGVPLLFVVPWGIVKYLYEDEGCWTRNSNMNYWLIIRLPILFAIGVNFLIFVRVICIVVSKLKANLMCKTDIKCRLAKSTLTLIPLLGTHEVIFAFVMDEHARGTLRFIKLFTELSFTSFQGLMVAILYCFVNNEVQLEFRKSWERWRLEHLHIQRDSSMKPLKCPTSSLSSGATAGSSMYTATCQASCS

binding to HEK293 cells over-expressing the GLP-1R (GLP-1R): binds
B1: GLP-1 MMB of SEQ ID NO: 69: wild-type GLP-1 sequence incorporated into a mimetibody scaffold (protein, listed as Homo sapiens)
chain: HAEGTFTSDVSSYLEGQAAKEFIAWLVKGRGGGSGGGSGTLVTVSS[human IgG4 Fc with S228P F234A L235A (EU numbers) omitted]
binding to control HEK293 cells (control HEK293 cells): does not bind | resistance to cleavage by DPP-IV (DPP-IV): significantly more resistant to cleavage by DPP-IV
